# Screen size: about 310,000 compounds; about 2,200 (0.71%) showed an effect of 50% or more. Effects have a minus sign here. This is one part of the list.
# Biological target: human ether-à-go-go-related gene (hERG) potassium channel (human, UniProt Q12809)
# Test: primary screen, population patch clamp on CHO cells stably expressing hERG
# Sequence of human ether-à-go-go-related gene (hERG) potassium channel (Q12809 whole entry, looked up): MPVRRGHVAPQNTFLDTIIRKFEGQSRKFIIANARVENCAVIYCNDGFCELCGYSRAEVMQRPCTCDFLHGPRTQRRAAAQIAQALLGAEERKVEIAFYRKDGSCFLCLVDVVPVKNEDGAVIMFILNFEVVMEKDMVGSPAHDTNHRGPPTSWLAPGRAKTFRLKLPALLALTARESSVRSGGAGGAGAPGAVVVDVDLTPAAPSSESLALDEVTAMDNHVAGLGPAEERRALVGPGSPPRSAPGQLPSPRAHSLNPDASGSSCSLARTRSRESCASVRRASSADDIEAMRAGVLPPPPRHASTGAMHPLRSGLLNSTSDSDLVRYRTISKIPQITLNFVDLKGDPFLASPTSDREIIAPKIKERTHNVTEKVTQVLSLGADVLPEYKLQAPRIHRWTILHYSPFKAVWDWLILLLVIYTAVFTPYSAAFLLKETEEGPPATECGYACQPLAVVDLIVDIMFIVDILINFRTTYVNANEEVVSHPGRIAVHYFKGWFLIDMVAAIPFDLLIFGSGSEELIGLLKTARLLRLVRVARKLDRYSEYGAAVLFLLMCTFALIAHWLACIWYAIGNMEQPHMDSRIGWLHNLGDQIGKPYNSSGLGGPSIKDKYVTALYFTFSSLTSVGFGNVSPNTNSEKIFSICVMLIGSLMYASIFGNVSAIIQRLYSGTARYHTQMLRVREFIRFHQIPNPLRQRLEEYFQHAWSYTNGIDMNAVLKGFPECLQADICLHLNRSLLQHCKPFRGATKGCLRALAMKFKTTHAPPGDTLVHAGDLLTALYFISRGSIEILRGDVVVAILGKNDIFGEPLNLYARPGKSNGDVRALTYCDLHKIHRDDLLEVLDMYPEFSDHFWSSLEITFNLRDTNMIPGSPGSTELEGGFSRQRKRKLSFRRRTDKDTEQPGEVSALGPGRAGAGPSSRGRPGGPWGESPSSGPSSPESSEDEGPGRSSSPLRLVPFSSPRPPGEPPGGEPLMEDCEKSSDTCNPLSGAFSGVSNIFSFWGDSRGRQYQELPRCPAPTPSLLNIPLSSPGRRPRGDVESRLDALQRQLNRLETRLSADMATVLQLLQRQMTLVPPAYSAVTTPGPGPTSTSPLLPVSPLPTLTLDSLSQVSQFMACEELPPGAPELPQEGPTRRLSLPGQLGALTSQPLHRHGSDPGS
row,Compound,"hERG current change (%, negative = inhibition) at 1uM [%]"
1,CCOC(=O)C[n+]1c(C)csc1C.[Br-],9.26
2,Cc1cc(C(F)F)n2ncc(C(=O)NCc3ccccc3C(F)(F)F)c2n1,7.73
3,CC(C)N1C(=O)S/C(=C\c2ccc(-c3ccc(Cl)c(C(=O)O)c3)o2)C1=O,16.4
4,CCn1c2ccc(F)cc2c2nnc(SCCN3CCCCC3)nc21,-29.4
5,O=C(/C=C/c1ccco1)NCCc1ccccc1,8.46
6,CN1CCN(CC(=O)N2c3ccccc3C(C)(c3ccc(Cl)cc3)CC2(C)C)CC1 (centres unmarked),4.77
7,COc1ccc(N2CCN(C(=O)CSc3nc4nc(C)cc(C)n4n3)CC2)cc1,-1.83
8,FC(F)(F)c1ccc(C2[C@H]3CN(Cc4ccc(-c5ccccc5)cc4)[C@H](c4ccccc4)C34CC2(c2ccccc2)C4)cc1 (some centres unmarked),13.8
9,CC(C)OC(=O)CC1C(=O)NCCN1C(=S)NC(=O)CCc1ccccc1 (centres unmarked),-9.42
10,COc1ccc(CC(=O)NC2CCN(CC(=O)Nc3ccc4c(c3)OCCO4)CC2)cc1OC,1.54
11,Cc1nn(-c2ccccc2)c(Cl)c1/C=N/NS(=O)(=O)c1ccc(Br)cc1,2.41
12,Cc1nnc2n1N=CC=C(c1ccccc1)S2,-13.8
13,O=C(CCSc1nc(-c2ccco2)cc(C(F)(F)F)n1)N1CCN(c2ccccc2)CC1,8.05
14,O=C(C1CCC(=O)N1C1CCCC1)N1CCC2(CC1)OCCO2 (centres unmarked),4.31
15,C=CCn1c(SCC(=O)c2c(N)n(C3CC3)c(=O)[nH]c2=O)nnc1-c1ccoc1C,11
16,COc1ccc(-c2noc(CCC(=O)NCCc3cccc(C)c3)n2)cc1,10.2
17,O=C(c1ccccc1)N1CC[NH+](CC(O)COC2CCCCC2)CC1.[Cl-] (centres unmarked),4.46
18,C=CCn1c(SCC(=O)/C(C#N)=C(\C)N)nc2sc(C)c(C)c2c1=O,-2.05
19,Clc1ccc(/C=N/Nc2nnc(-c3ncc[nH]3)c3ccccc23)cc1,4.89

row,Compound,"hERG current change (%, negative = inhibition) at 1uM [%]"
1,CCCCn1c(N)c(N(CC(C)C)C(=O)CC2CCCC2)c(=O)[nH]c1=O,6.57
2,O=C(CN1CCN(C(=O)CNC(=O)c2ccc3c(c2)OCO3)CC1)Nc1ccc(F)cc1,-4.24
3,COC(=O)c1ccccc1-n1c(C)nc2ccccc2c1=O,8.62
4,CCCCN(CC)C(=O)Cc1cn(C)c2ccccc12,9.64
5,CCN(C(=O)COC(=O)Cc1c[nH]c2ccccc12)c1c(N)n(Cc2ccccc2)c(=O)[nH]c1=O,4.14
6,CCOc1ccc(/C=C/C(=O)Nc2cccc(C(C)=O)c2)cc1,11.8
7,CC(C)CC(=O)Nc1ccnc(-c2ccncc2)n1,-7.96
8,O=C(C1=C(O)C(=O)N(CCCn2ccnc2)C1c1ccccc1)c1ccco1 (centres unmarked),6.79
9,COc1ccccc1N1CCN(C(=O)CN2C(=O)c3ccccc3S2(=O)=O)CC1,10.9
10,O=S1(=O)N=C(Oc2cccc3ccccc23)c2ccccc21,11.4
11,O=C(CCCOc1ccc(Cl)cc1Cl)N1CCc2ccccc2C1,13.3
12,CC(C)(C)NC(=O)COc1ccc(CNCc2cccs2)cc1.Cl,11.1
13,Cn1c(=O)c2c(nc(SCCN3CCCCC3)n2Cc2ccccc2)n(C)c1=O,-66
14,CC(C)(C)C1CCC(=NOC(=O)c2ccc(F)cc2)CC1 (centres unmarked),13.7
15,O=C(CNc1c(Br)cc(Br)cc1Br)NN=C1CCCCC1,-0.726
16,COc1ccc(N=C2SCC(c3ccccc3)=NN2C)cc1,7.83
17,Cc1cc(C)n2c(SCC(=O)Nc3ccc(F)cc3F)nnc2n1,30.5
18,CNc1c(NS(=O)(=O)c2ccc(C(C)(C)C)cc2)c(=O)oc2ccccc12,6.66
19,C/C(=N\NC(=O)CCC(=O)Nc1ccc(C)c(C)c1)C1CC1,10.2

row,Compound,"hERG current change (%, negative = inhibition) at 1uM [%]"
1,Cc1ccc(CNc2nc(N)c([N+](=O)[O-])c(Nc3cccc(F)c3)n2)cc1,1.73
2,Cc1cc(=O)[nH]c(SCC(=O)c2ccc(O)c(O)c2)n1,17.6
3,CC1(C)CC(CC(=O)Nc2ccc([N+](=O)[O-])cc2)C(=O)O1 (centres unmarked),-5.96
4,O=C(CN(C(=O)CSc1nnc(COc2ccccc2)o1)c1ccc(F)cc1)NC1CCCCC1,-13.5
5,O=C(CSc1nc2ccccc2[nH]1)N/N=C/c1ccncc1,12.3
6,CC1(C)Cn2c(nnc2-c2ccccc2)S1,18
7,CC(C)=CC(=O)OCC(=O)NC1CCCc2ccccc21 (centres unmarked),11.4
8,CCOC(=O)C1(Cc2ccccc2)CCN(Cc2ccc(C)s2)CC1,-2.06
9,O=C(c1ccc(CS(=O)(=O)c2ccccc2)o1)N1CCN(c2ncccn2)CC1,1.46
10,COC(C(=O)Nc1ccc(F)c(F)c1)c1ccccc1 (centres unmarked),9.43
11,Cc1ccc(N2CCN(S(=O)(=O)c3cccs3)CC2C)cc1 (centres unmarked),15.8
12,O=C(CSc1nnc(NC(=O)c2c(F)cccc2F)s1)Nc1ccc(F)cc1,7.29
13,CCCn1cc(S(=O)(=O)c2ccccc2)c(=O)c2cc(CC)ccc21,9.4
14,COc1ccccc1-c1noc(-c2ccccc2C(=O)NCC2CCCO2)n1 (centres unmarked),14.1
15,N#Cc1c(NC(=S)NC(=O)c2ccccc2)sc2c1CCN(CCc1ccccc1)C2,2.87
16,CON(c1nc(Cl)nc(N(C)C)n1)S(=O)(=O)c1ccccc1Cl,6.38
17,CN(CC(=O)Nc1ccccc1Cl)C(=O)c1cccc(S(=O)(=O)N2CCN(c3ccc(F)cc3)CC2)c1,6.29
18,O=C(N/N=C/c1ccccc1O)C1SCCCS1,-1.63

# From PMC4336329 (PLoS ONE, 2015)
